Measured values published in patent publication US20220233529A1, “COMBINATION THERAPY COMPRISING A2A/A2B INHIBITORS, PD-1/PD-L1 INHIBITORS, AND ANTI-CD73 ANTIBODIES” (Incyte Corporation, priority 2020, published 2022).

Legend:
human CD73 = molecular target: T1, human CD73 (Homo sapiens, UniProt P21589); assay: Binding affinity of anti-CD73 antibody to human CD73
T1 sequence (P21589 27-549): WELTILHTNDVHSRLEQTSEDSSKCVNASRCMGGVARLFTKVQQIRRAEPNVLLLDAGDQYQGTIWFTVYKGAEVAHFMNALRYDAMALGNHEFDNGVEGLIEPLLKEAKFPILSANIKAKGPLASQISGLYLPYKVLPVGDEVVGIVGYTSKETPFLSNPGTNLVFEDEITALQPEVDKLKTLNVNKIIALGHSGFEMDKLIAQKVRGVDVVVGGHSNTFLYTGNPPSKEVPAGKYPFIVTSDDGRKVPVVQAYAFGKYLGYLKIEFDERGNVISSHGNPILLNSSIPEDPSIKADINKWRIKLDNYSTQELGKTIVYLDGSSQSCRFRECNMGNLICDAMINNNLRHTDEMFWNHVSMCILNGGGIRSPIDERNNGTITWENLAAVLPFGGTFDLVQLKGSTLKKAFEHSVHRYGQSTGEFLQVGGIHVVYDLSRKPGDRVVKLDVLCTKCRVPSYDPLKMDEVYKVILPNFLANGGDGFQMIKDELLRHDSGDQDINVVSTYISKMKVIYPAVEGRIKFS

murine CD73 = molecular target: T2, murine CD73 (Mus musculus, UniProt Q61503); assay: Binding affinity of anti-CD73 antibody to murine CD73
T2 sequence (Q61503 29-551): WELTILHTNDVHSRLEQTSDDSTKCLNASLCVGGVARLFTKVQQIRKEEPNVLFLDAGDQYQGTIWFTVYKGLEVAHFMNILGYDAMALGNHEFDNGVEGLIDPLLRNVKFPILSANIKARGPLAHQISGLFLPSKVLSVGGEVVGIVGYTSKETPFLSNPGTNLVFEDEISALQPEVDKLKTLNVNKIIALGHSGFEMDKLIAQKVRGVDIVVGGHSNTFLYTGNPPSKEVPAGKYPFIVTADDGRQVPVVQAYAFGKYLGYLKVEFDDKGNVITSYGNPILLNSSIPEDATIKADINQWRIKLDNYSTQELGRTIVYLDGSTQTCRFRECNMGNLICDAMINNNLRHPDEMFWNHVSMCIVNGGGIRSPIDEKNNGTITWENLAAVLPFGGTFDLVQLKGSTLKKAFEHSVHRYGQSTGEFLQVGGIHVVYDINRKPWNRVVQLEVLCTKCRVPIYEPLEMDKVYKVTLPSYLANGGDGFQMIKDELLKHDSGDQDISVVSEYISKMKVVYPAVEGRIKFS

[1] = test system: human breast adenocarcinoma tumor, MDA-MB-231; assay: Anti-tumor efficacy in humanized murine host carrying MDA-MB-231 tumor; format: in vivo, human CD34+ reconstituted mice; settings: vs Vehicle + IgG isotype, ANTIBODY Y 10 mg/kg i.p. every 5 days, retifanlimab 1 mg/mL i.p. every 5 days, Compound 9 10 mg/kg p.o. b.i.d., dosing day 7-35
Experimental: On day 7, and every 3 to 4 days subsequently, tumors were measured by Vernier caliper and tumor volume was calculated by the formula, Volume=[L (long dimension)×W^2 (short dimension)]/2. Based on these measurements, mice were randomized into 8 treatment groups of 10 mice each with an average starting tumor volume of 180 mm^3. The studied agents were formulated and administered as follows: ANTIBODY Y was diluted to a final concentration of 1 mg/mL in phosphate-buffered saline and administered by intraperitoneal (i.p.) injection at 10 mL/kg to mice for a dose of 10 mg/kg, every 5 days. Retifanlimab (Macrogenics) was diluted to 1 mg/mL and dosed i.p., every 5 days. For combination treatments, the two antibodies were co-formulated to a concentration of 1 mg/mL, each. The oral vehicle was 5% N,N-dimethylacetamide in 0.5% methyl-cellulose in 50 mM citrate buffer, pH 3.0 (all reagents obtained from Sigma) and was administered by oral gavage (p.o.) twice daily (b.i.d.).
Dosing began at day 7, and ran for 28 days, through day 35. […]
Tumor Growth Inhibition (TGI), defined as (1-treatment group volume)/control group volume)×100 was analyzed for the whole study on day 47, the last day prior to some animals leaving the study at their endpoint. […]

B1: ANTIBODY Y: humanized IgG1/kappa anti-CD73 monoclonal antibody with alanine at N297; heavy chain SEQ ID NO:24, light chain SEQ ID NO:25 (antibody)
heavy: EVQLVQSGAEVKKPGESLKISCKGSGYTFTSYGLSWVRQMPGKGLEWMGEIYPGSGNTYYNEKFKGQVTISADKSISTAYLQWSSLKASDTAMYYCARYDYLGSSYGFDYWGAGTTVTVSSASTKGPSVFPLAPSSKSTSGGTAALGCLVKDYFPEPVTVSWNSGALTSGVHTFPAVLQSSGLYSLSSVVTVPSSSLGTQTYICNVNHKPSNTKVDKRV[sequence of human IgG1 Fc with changes not given]
light: DIVMTQSPDSLAVSLGERATINCKASQDVSTAVAWYQQKPGQPPKLLIYSASYRYSGVPDRFSGSGSGTDFTLTISSLQAEDVAVYYCQQHYNTPYTFGGGTKLEIKRTVAAPSVFIFPPSDEQLKSGTASVVCLLNNFYPREAKVQWKVDNALQSGNSQESVTEQDSKDSTYSLSSTLTLSKADYEKHKVYACEVTHQGLSSPVTKSFNRGEC
Kd (human CD73): 0.5 nM
binding to mouse CD73 (murine CD73): undetectable binding
Percent TGI (Day 47 Tumor Growth Inhibition) [1]: 2.20%
